Measurements as given in patent US7176277 (BURNHAM INSTITUTE, dated 2007).

How the values were obtained:
Bcl-2 = target: T1, Bcl-2 (UniProt P10415); assay: GST pull-down, SDS-PAGE autoradiography
T1 construct: The residue numbers used for the mutants (Tyr108, Leu137, Gly145, Arg146, TM 205-239) fit human Bcl-2 alpha; also called full-length Bcl-2; ^35S-labeled Bcl-2

TR3 = target: T2, TR3 (human, UniProt P22736); assay: GST pull-down, SDS-PAGE autoradiography
T2 construct: Full-length TR3, either endogenous in human cell lines (LNCaP, H460) or synthesized in vitro and ^35S-labeled; also called orphan receptor TR3; nur77

Sequence of Bcl-2 (P10415 whole entry): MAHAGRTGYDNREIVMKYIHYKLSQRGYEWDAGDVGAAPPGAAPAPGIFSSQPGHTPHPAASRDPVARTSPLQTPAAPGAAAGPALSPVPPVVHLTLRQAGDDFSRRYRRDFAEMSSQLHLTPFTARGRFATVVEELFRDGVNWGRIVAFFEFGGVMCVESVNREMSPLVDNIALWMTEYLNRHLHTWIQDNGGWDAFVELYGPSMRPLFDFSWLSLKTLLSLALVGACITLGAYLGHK
Sequence of TR3 (P22736 whole entry): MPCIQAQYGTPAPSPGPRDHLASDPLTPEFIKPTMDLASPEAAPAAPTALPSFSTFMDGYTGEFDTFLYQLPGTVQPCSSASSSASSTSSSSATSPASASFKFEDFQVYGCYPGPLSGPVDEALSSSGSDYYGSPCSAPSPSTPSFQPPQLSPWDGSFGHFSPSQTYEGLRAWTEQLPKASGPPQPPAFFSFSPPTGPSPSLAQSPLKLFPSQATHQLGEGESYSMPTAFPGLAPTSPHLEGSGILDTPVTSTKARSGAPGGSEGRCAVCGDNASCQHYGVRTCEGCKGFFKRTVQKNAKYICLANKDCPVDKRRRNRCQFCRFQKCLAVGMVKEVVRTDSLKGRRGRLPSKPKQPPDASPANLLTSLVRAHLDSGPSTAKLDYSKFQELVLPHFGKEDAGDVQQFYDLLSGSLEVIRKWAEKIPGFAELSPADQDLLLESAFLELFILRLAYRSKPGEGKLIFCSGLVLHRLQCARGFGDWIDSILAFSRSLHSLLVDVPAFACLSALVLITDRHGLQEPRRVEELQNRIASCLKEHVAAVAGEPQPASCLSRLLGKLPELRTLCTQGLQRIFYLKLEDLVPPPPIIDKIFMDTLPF

B1: GST (other)
chain: not shown
notes: Control protein in the GST pull-down
binding result (Bcl-2): no binding | binding result (TR3): no binding
